# In the supplement of paper PMC10037445:
# Values joined by “and” are separate entries in the source; they are usually repeats but may differ in a detail not shown here. Equal entries are not always repeated. Over roughly 2,900 compounds, “IRF Lucia reporter activity, fold change vs agonist alone” has its median near 0.9; the highest 2% begin near 2.8. This is one part of the list.
# How the values were obtained:
# RAW-Dual [1] = test: IRF Lucia reporter activity, fold change vs agonist alone; higher = enhanced IRF activity; details: agonist: MPLA (TLR4) […]
# Procedure, shortened: (§1)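 Reporter activity is given as fold change relative to agonist-alone wells. To measure it, 50 nL of library stock was pin-tooled onto RAW-Dual macrophages (50,000 cells/well, DMEM, 384-well plates), a PRR agonist followed 1 h later, and cells stayed at 37 °C, 5% CO2. Twenty hours on, supernatant was assayed for IRF (QuantiLuc luminescence) and NF-κB (QuantiBlue, 620 nm absorbance), and wells under 70% of agonist-control IncuCyte confluency in both mask sets were marked cytotoxic.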
# RAW-Dual [2] = test: IRF Lucia reporter activity, fold change vs agonist alone; cytotoxicity flag (confluency mask): not cytotoxic; higher = enhanced IRF activity
# Procedure, shortened: as §1
# RAW-Dual [3] = test: IRF Lucia reporter activity, fold change vs agonist alone; cytotoxicity flag (confluency mask): cytotoxic (confluency <70% of control); higher = enhanced IRF activity
# Procedure, shortened: as §1
# [4] = library stock concentration (final ~1000-fold dilution): 10 mM, cytotoxicity flag (confluency mask): not cytotoxic
# [5] = agonist: 3'3'-cGAMP (STING) 10 ug/mL
structure (smiles),measurement,setting,value
Cc1ccc(-c2c(-c3nn(C)c4ncnc(N5CCC(N6CCCCC6)C5)c34)cnn2C)cc1 (stereo unspecified),IRF Lucia reporter activity,RAW-Dual [1]; [4],1.1
Cc1ccc(-c2c(-c3nn(C)c4ncnc(N5CCC(N6CCCCC6)C5)c34)cnn2C)cc1 (stereo unspecified) (library stock concentration (final ~1000-fold dilution): 10 mM),IRF Lucia reporter activity,RAW-Dual [2]; [5],1.09
same,IRF Lucia reporter activity,RAW-Dual [2]; agonist: LPS (TLR4) 0.1 ug/mL,0.958
COc1cc2c(cc1OC)-c1cc3ccc4c(c3c[n+]1CC2)OCO4 (library stock concentration (final ~1000-fold dilution): 10 mM),IRF Lucia reporter activity,RAW-Dual [2]; [5],1.01 and 0.78
same,IRF Lucia reporter activity,RAW-Dual [2]; agonist: LPS (TLR4) 0.1 ug/mL,1.19 and 1.06
Cc1cn(C2CC(O)C(CO)O2)c(=O)[nH]c1=O (stereo unspecified),IRF Lucia reporter activity,RAW-Dual [1]; [4],0.937
Cc1cn(C2CC(O)C(CO)O2)c(=O)[nH]c1=O (stereo unspecified) (library stock concentration (final ~1000-fold dilution): 10 mM),IRF Lucia reporter activity,RAW-Dual [2]; [5],1.07
same,IRF Lucia reporter activity,RAW-Dual [2]; agonist: LPS (TLR4) 0.1 ug/mL,0.877
NOCC(=O)O (library stock concentration (final ~1000-fold dilution): 10 mM),IRF Lucia reporter activity,RAW-Dual [2]; [5],1.05
same,IRF Lucia reporter activity,RAW-Dual [2]; agonist: LPS (TLR4) 0.1 ug/mL,1.4
NOCC(=O)O,IRF Lucia reporter activity,RAW-Dual [1]; [4],1.07
COc1cc2ncnc(Nc3ccc(O)cc3)c2cc1OC (library stock concentration (final ~1000-fold dilution): 10 mM),IRF Lucia reporter activity,RAW-Dual [2]; [5],0.475
same,IRF Lucia reporter activity,RAW-Dual [2]; agonist: LPS (TLR4) 0.1 ug/mL,0.177
COc1cc2ncnc(Nc3ccc(O)cc3)c2cc1OC,IRF Lucia reporter activity,RAW-Dual [1]; [4],0.582
CS(=O)(=O)O.N#CC1(c2ccc(NC(=O)c3cccnc3NCc3ccncc3)cc2)CCCC1 (library stock concentration (final ~1000-fold dilution): 10 mM),IRF Lucia reporter activity,RAW-Dual [2]; [5],0.204
same,IRF Lucia reporter activity,RAW-Dual [2]; agonist: LPS (TLR4) 0.1 ug/mL,0.822
CS(=O)(=O)O.N#CC1(c2ccc(NC(=O)c3cccnc3NCc3ccncc3)cc2)CCCC1,IRF Lucia reporter activity,RAW-Dual [1]; [4],0.927
CCC(C)C(=O)OC1CCC=C2C=CC(C)C(CCC3CC(O)CC(=O)O3)C21 (stereo unspecified),IRF Lucia reporter activity,RAW-Dual [1]; [4],0.761
CCC(C)C(=O)OC1CCC=C2C=CC(C)C(CCC3CC(O)CC(=O)O3)C21 (stereo unspecified) (library stock concentration (final ~1000-fold dilution): 10 mM),IRF Lucia reporter activity,RAW-Dual [2]; [5],0.46
same,IRF Lucia reporter activity,RAW-Dual [2]; agonist: LPS (TLR4) 0.1 ug/mL,0.787
CCN(CC)C(=O)Nc1ccc(OCC(O)CNC(C)(C)C)c(C(C)=O)c1.Cl (stereo unspecified),IRF Lucia reporter activity,RAW-Dual [1]; [4],0.256
CCN(CC)C(=O)Nc1ccc(OCC(O)CNC(C)(C)C)c(C(C)=O)c1.Cl (stereo unspecified) (library stock concentration (final ~1000-fold dilution): 10 mM),IRF Lucia reporter activity,RAW-Dual [2]; [5],0.652
same,IRF Lucia reporter activity,RAW-Dual [2]; agonist: LPS (TLR4) 0.1 ug/mL,0.217
CC12CC(O)C3CC1(O[C@@H]1O[C@H](CO)[C@@H](O)[C@H](O)[C@H]1O)C3(COC(=O)c1ccccc1)C(=O)O2 (stereo partly specified) (library stock concentration (final ~1000-fold dilution): 10 mM),IRF Lucia reporter activity,RAW-Dual [2]; [5],0.973
same,IRF Lucia reporter activity,RAW-Dual [2]; agonist: LPS (TLR4) 0.1 ug/mL,0.864
COC1/C=C\C=C(/C)C(=O)NC2=CC(=O)C(NCCN(C)C)=C(CC(C)CC(OC)C(O)C(C)/C=C(\C)C1OC(N)=O)C2=O.Cl (stereo unspecified),IRF Lucia reporter activity,RAW-Dual [1]; [4],0.306
COC1/C=C\C=C(/C)C(=O)NC2=CC(=O)C(NCCN(C)C)=C(CC(C)CC(OC)C(O)C(C)/C=C(\C)C1OC(N)=O)C2=O.Cl (stereo unspecified) (library stock concentration (final ~1000-fold dilution): 10 mM),IRF Lucia reporter activity,RAW-Dual [2]; [5],0.0852
same,IRF Lucia reporter activity,RAW-Dual [2]; agonist: LPS (TLR4) 0.1 ug/mL,0.273
CCCCCCCCCCCCCCCCCC[N+](C)(C)C,IRF Lucia reporter activity,"RAW-Dual [1]; library stock concentration (final ~1000-fold dilution): 10 mM, cytotoxicity flag (confluency mask): cytotoxic (confluency <70% of control)",0.342
CCCCCCCCCCCCCCCCCC[N+](C)(C)C (library stock concentration (final ~1000-fold dilution): 10 mM),IRF Lucia reporter activity,RAW-Dual [3]; [5],0.119
same,IRF Lucia reporter activity,RAW-Dual [3]; agonist: LPS (TLR4) 0.1 ug/mL,0.28
Cn1cc(-c2ccc3nnc(C(F)(F)c4ccc5ncccc5c4)n3n2)cn1 (library stock concentration (final ~1000-fold dilution): 10 mM),IRF Lucia reporter activity,RAW-Dual [2]; [5],0.756
same,IRF Lucia reporter activity,RAW-Dual [2]; agonist: LPS (TLR4) 0.1 ug/mL,0.756
Cn1cc(-c2ccc3nnc(C(F)(F)c4ccc5ncccc5c4)n3n2)cn1,IRF Lucia reporter activity,RAW-Dual [1]; [4],0.92
c1ccc2[nH]c(-c3cscn3)nc2c1 (library stock concentration (final ~1000-fold dilution): 10 mM),IRF Lucia reporter activity,RAW-Dual [2]; [5],0.972
same,IRF Lucia reporter activity,RAW-Dual [2]; agonist: LPS (TLR4) 0.1 ug/mL,1.01
c1ccc2[nH]c(-c3cscn3)nc2c1,IRF Lucia reporter activity,RAW-Dual [1]; [4],0.726
Cl.Nc1ccn(C2OC(CO)C(O)C2(F)F)c(=O)n1 (stereo unspecified),IRF Lucia reporter activity,"RAW-Dual [1]; library stock concentration (final ~1000-fold dilution): 10 mM water, cytotoxicity flag (confluency mask): cytotoxic (confluency <70% of control)",1.22
Cl.Nc1ccn(C2OC(CO)C(O)C2(F)F)c(=O)n1 (stereo unspecified) (library stock concentration (final ~1000-fold dilution): 10 mM water),IRF Lucia reporter activity,RAW-Dual [3]; [5],1.81
same,IRF Lucia reporter activity,RAW-Dual [3]; agonist: LPS (TLR4) 0.1 ug/mL,1.01
CC(NC(CCc1ccccc1)C(=O)O)C(=O)N1CCCC1C(=O)O.O.O (stereo unspecified),IRF Lucia reporter activity,RAW-Dual [1]; [4],0.952
CC(NC(CCc1ccccc1)C(=O)O)C(=O)N1CCCC1C(=O)O.O.O (stereo unspecified) (library stock concentration (final ~1000-fold dilution): 10 mM),IRF Lucia reporter activity,RAW-Dual [2]; [5],1.07
same,IRF Lucia reporter activity,RAW-Dual [2]; agonist: LPS (TLR4) 0.1 ug/mL,0.922
CCC(CC)CC1(C(=O)Nc2ccccc2SC(=O)C(C)C)CCCCC1,IRF Lucia reporter activity,RAW-Dual [1]; [4],1.14
CCC(CC)CC1(C(=O)Nc2ccccc2SC(=O)C(C)C)CCCCC1 (library stock concentration (final ~1000-fold dilution): 10 mM),IRF Lucia reporter activity,RAW-Dual [2]; [5],0.755
same,IRF Lucia reporter activity,RAW-Dual [2]; agonist: LPS (TLR4) 0.1 ug/mL,1.03
